Among all 310,000 compounds or so, about 2,200 (0.71%) showed an effect of 50% or more. The effect is printed as a negative number. Some of the results follow.
target: human ether-à-go-go-related gene (hERG) potassium channel (human, UniProt Q12809); assay: primary screen, population patch clamp on CHO cells stably expressing hERG
Sequence (Q12809 whole entry, looked up): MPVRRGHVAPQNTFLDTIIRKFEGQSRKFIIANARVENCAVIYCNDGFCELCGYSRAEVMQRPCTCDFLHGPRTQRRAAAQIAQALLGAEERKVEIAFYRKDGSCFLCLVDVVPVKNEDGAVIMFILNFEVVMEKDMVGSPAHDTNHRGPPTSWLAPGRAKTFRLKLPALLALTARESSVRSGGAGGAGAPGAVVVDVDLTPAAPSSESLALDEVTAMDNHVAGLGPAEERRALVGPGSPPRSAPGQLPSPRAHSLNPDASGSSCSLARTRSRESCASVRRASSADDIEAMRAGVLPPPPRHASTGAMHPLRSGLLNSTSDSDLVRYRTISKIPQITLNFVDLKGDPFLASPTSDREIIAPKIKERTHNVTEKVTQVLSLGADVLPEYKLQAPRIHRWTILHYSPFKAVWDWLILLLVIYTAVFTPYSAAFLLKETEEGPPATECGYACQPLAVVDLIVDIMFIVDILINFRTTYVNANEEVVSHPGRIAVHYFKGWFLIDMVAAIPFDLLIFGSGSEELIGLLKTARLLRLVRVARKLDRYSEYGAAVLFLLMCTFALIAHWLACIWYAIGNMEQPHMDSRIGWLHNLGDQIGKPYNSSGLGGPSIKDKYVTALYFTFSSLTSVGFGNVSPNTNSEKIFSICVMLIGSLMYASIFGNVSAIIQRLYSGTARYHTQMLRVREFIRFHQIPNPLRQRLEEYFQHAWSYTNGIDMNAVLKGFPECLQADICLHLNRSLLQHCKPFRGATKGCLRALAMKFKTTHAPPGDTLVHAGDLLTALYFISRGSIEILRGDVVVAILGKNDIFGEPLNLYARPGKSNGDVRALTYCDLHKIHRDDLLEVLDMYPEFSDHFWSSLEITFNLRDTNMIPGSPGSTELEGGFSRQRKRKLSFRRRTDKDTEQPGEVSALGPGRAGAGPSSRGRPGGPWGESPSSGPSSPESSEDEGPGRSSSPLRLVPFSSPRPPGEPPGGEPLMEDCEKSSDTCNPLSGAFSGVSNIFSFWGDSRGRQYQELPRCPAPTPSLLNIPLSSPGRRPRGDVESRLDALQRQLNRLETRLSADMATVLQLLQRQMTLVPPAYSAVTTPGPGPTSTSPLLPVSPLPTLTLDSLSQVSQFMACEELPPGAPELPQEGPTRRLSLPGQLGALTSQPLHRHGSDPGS

First: O=C(O)CCn1c(=O)sc2ccccc21
Second: Cc1onc(-c2ccccc2)c1C(=O)Nc1ccon1
The “hERG current change (%, negative = inhibition) at 1uM” value of the first is higher: 7.42% for the first, 4.32% for the second.

Compared with `COc1ccc(/C=N/Nc2nnc(C)n2N)cc1OC(C)=O.Cl`, `COc1cccc(OC)c1C(=O)Nc1ccncc1` is higher in “hERG current change (%, negative = inhibition) at 1uM” value: 11.9% for the first, 17.4% for the second.

Compared with `COc1ccccc1N1CCN(c2ccc([N+](=O)[O-])cc2Cl)CC1`, `COc1ccc(NC(=O)c2ccc3c(c2)CCN3S(=O)(=O)c2ccccc2)cc1` is lower in “hERG current change (%, negative = inhibition) at 1uM” value: 12.1% for the first, 10.5% for the second.

Compared with `CCCCCSc1nnc(-c2ccccc2NC(C)=O)c(=O)[nH]1`, `Cc1ccc(C(=O)Nc2c(C)cc(-c3ccccc3)oc2=O)cc1` is lower in “hERG current change (%, negative = inhibition) at 1uM” value: 16.2% for the first, 10.9% for the second.

First: Cc1ccc(OCC(=O)N(Cc2ccccc2)C(C)C)c([N+](=O)[O-])n1
Second: CN(C(=O)COC(=O)CSCc1cccc(Cl)c1)c1c(N)n(Cc2ccccc2)c(=O)[nH]c1=O
The “hERG current change (%, negative = inhibition) at 1uM” value of the first is lower: -0.696% for the first, 3.78% for the second.

Compared with `Cc1ccc(C)c(COc2coc(CN3CCN(C(=O)c4ccco4)CC3)cc2=O)c1`, `O=C(CCn1c(=O)c2ccccc2n(Cc2ccccc2)c1=O)NC1CCN(Cc2ccccc2)CC1` is higher in “hERG current change (%, negative = inhibition) at 1uM” value: -95.9% for the first, -3.57% for the second.

Going from `COc1cc(C(=O)OCCN2CCOCC2)cc(OC)c1OC` to `COc1ccc(S(=O)(=O)NC(CC(=O)NCCc2ccc(OC)c(OC)c2)C(C)C)cc1` (stereo not drawn), the “hERG current change (%, negative = inhibition) at 1uM” value rises from 3.45% to 9.55%.

Compared with `CC1CC2=C(C(=O)O1)C(c1ccc(Cl)cc1)Nc1ccccc1N2` (stereo not drawn), `CNc1ccccc(-c2ccc3cc4c(cc3n2)OCO4)c1=O` is higher in “hERG current change (%, negative = inhibition) at 1uM” value: 1.41% for the first, 4.15% for the second.

Going from `CCCCCCNc1nc(Cl)nc(NC(C)(C)CO)n1` to `Cn1cc(C[C@H](NC(=O)OC(C)(C)C)C(=O)N[C@H](CO)Cc2ccccc2)c2ccccc21`, the “hERG current change (%, negative = inhibition) at 1uM” value rises from 16.6% to 18.7%.

First: COc1ccc(C(=O)COc2ncnc3cc(Cl)ccc23)cc1
Second: O=C(Nc1cccc(Cl)c1)c1ccncc1
The “hERG current change (%, negative = inhibition) at 1uM” value of the first is lower: 10.2% for the first, 12.8% for the second.

First: CON/C=C(\C=Nc1ccc(C(F)(F)F)cc1)c1ncc(C(F)(F)F)cc1Cl
Second: Cc1noc(/C=C/N(C)C)c1S(=O)(=O)N1CCCC(C(=O)NCc2ccc(F)cc2)C1 (stereo not drawn)
The “hERG current change (%, negative = inhibition) at 1uM” value of the first is lower: 3.48% for the first, 3.95% for the second.

Going from `O=C(NNC(=O)C1CC1c1ccccc1)c1ccccc1[N+](=O)[O-]` (stereo not drawn) to `Cc1ccc2c(c1)CCCN2C(=O)NC1CCCCC1`, the “hERG current change (%, negative = inhibition) at 1uM” value rises from -1.92% to 11.5%.
